The source of these data is PubChem BioAssay AID463173 (ICCB-Longwood Screening Facility, Harvard Medical School, 2010).

Hit rate of the full screen: of about 52,000 compounds, about 1,700 (3.3%) were called active. Cut-off read from the data, not from the text of the source: active = survival mostly below about 52% (no sharp cut-off); inactive = mostly above about 56%. This is one part of the list.

The test system of the experiment is Wild type. Nature of the experiment: S. aureus survival, RN4220 and DeltatarO strains – OD600, teichoic acid synthesis inhibitors, primary screen (AID 463173). As to conditions: S. aureus RN4220 wild type/DeltatarO growth, OD600, 18 h, stronger effect = lower value, screened at 18.75 µg/mL (by protocol).
As to `CCOC(=O)c1ccccc1NC(=O)CSc1c(C)cnc2c1c(=O)n(C)c(=O)n2C`, the survival is inactive: 59%. The value for `NC(=O)CSc1nnc(CNc2ccc(Cl)cc2)n1Cc1ccccc1` was inactive: 125%; that for `COCCCNC(=O)c1ccc(CSc2nc3cccnc3n2Cc2ccc(OC)cc2)cc1` was inactive: 94%; that for `Cc1cc(C)c(S(=O)(=O)Nc2ccc3oc4c(c3c2)CCCC4)cc1C` was inactive: 72%.

Turning to `COc1nc(C)c(/C=C/C(=O)N(C(=O)NC2CCCCC2)C2CCCCC2)c(OC)n1`, the survival is inactive: 101%. `COc1ccc(C2C=C(c3ccccc3)Nc3nc(NS(=O)(=O)c4ccccc4)nn32)cc1` (configuration not stated): the survival was inactive: 29%. With `Cc1nc2c(c(C)c1CCC(=O)N1CCN(c3ccccc3)CC1)c(=O)n(C)c(=O)n2C`, the survival was inactive: 118%.

On to `COc1ccc(CCNC(=O)C2CC(=O)N(CCc3ccccc3)C2)cc1OC` (configuration not stated), for which the survival is inactive: 121%.

Regarding `O=C(Nc1cccc(Cl)c1Cl)c1cc(S(=O)(=O)N2CCCCC2)ccc1F`, the survival is inactive: 64%. For `COc1cccc(NC(=O)c2c(-c3ccc(C)cc3)nnc3ccccc23)c1`, the survival was inactive: 74%.

On to `Cc1ccc(C)c(Cn2c(=O)n(-c3ccc(Cl)cc3)c(=O)c3c4c(sc32)CCC4)c1`, for which the survival is inactive: 135%.

In the case of `COc1ccc(OC)c(S(=O)(=O)NCCc2sc(-c3cccnc3)nc2C)c1`, the survival is inactive: 72%.

In the case of `CC(=O)OC1=CN(Cc2ccccc2)S(=O)(=O)c2ccccc21`, the survival is inactive: 77%. Turning to `CCCCN1CC(c2nc3ccccc3n2CCCCOc2ccccc2C)CC1=O` (configuration not stated), the survival was active: 15%. The figure for `Cc1ccc(-c2onc(C)c2C)cc1S(=O)(=O)NCc1cccs1` is inactive: 119%; for `COc1ccccc1N1CCN(c2nc3ccc(C(=O)c4ccccc4)cc3n3c(C)nnc23)CC1` it is inactive: 64%. The value for `CCc1nn(CC(=O)Nc2ccc(C)c(F)c2)c(=O)c2cc3cc(C)ccc3n12` was inactive: 109%. As for `COc1ccc(OC)c(CNC(=O)C2CCN(S(=O)(=O)N3CCCCC3)CC2)c1`, the survival is inactive: 63%.

In the case of `CCCN(Cc1cccs1)C(=O)Nc1cc(C)ccc1OC`, the survival is inactive: 83%. The value for `O=C(c1ccc2c(c1)N(Cc1ccc(Cl)cc1)C(=O)c1ccccc1S2(=O)=O)N1CCCCCC1` was inactive: 96%; that for `Cc1cccc(C)c1Nc1c(-c2ccccc2Cl)nc2cnccn12` was inactive: 123%; that for `O=C(COc1ccc(F)cc1)Nc1ccc2nc(SCC(=O)N3CCCC3)sc2c1` was inactive: 105%. Take `CCOc1ccc(NC(=O)C2CCN(C(=O)Cc3ccccc3)CC2)cc1`: the survival is inactive: 101%.

`COc1ccccc1N1CCN(C2C(=O)c3ccccc3N2C(C)=O)CC1` (configuration not stated): the survival is inactive: 66%.

For `Cc1ccc(-c2cn3c(n2)sc2cc(C(=O)NCCC4=CCCCC4)ccc23)c(C)c1`, the survival was inactive: 100%.

As to `CCOc1ccc(S(=O)(=O)NCC(c2ccc(N(C)C)cc2)N2CCCC2)cc1` (configuration not stated), the survival was inactive: 94%. Consider `CCOc1ccc(-c2nnc(SCC(=O)Nc3ccccc3C(F)(F)F)o2)cc1`, for which the survival was inactive: 53%. The value for `Cc1ccc(N2C(=O)C(CC(=O)Nc3ccc(F)cc3)N(CCC3=CCCCC3)C2=O)cc1` (configuration not stated) was inactive: 71%.

Consider `COCCCNC(=O)c1cn(CC(C)C)c(=O)c2c1c1ccccc1n2C`, for which the survival is inactive: 84%. The value for `CCOc1ccc(OCC)c(NC(=O)c2nnn(Cc3cc(Br)ccc3OC)c2N)c1` was inactive: 72%; that for `CC(=O)c1ccc(N2CCN(C(=O)C3CCN(S(=O)(=O)c4ccc(Br)s4)CC3)CC2)cc1` was inactive: 128%; that for `COCCn1c(CNC(=O)c2cccc(N(C)C)c2)nc2cccnc21` was inactive: 65%. With `COc1cc(OC)c(NS(=O)(=O)c2cc3c(cc2C)NC(=O)CO3)cc1Cl`, the survival was inactive: 86%. The value for `Cc1ccc(NC(=O)c2nc(S(C)(=O)=O)ncc2N(Cc2ccco2)Cc2ccccc2F)c(C)c1` was inactive: 84%.

Regarding `CCC(C(=O)NC1CCCC1)N(C(=O)c1snc(C(N)=O)c1N)c1ccccc1` (configuration not stated), the survival was inactive: 98%. Regarding `Cc1nc2scc(C)n2c(=O)c1S(=O)(=O)Nc1cccc(O)c1`, the survival is inactive: 84%. For `NCCC(=O)N1c2ccccc2Sc2ccc(Cl)cc21`, the survival is inactive: 104%.

Turning to `CCN(Cc1ccccc1)C(=O)CCS(=O)(=O)c1cc2c(cc1Cl)NC(=O)CO2`, the survival is inactive: 85%.

For `Cc1ccc(C)c(NC(=O)Nc2nnc(N(CC(C)C)CC(C)C)s2)c1`, the survival was inactive: 100%. The value for `CCN1C2OC(C3OC4C(O3)N(CC)S(=O)(=O)N4CC)OC2N(CC)S1(=O)=O` (configuration not stated) was inactive: 96%; that for `CCOC(=O)c1c(C)[nH]c(C)c1S(=O)(=O)N1CCC(C(=O)N2CCN(c3cccc(C)c3)C(C)C2)CC1` (configuration not stated) was inactive: 126%. The value for `CCOC(=O)c1ccc(CN(Cc2ccc(F)cc2)S(=O)(=O)c2ccc(F)cc2)cc1` was inactive: 68%; that for `O=C(Nc1ccc(C(F)(F)F)cc1)c1cc(S(=O)(=O)NC2CCCCCC2)ccc1F` was inactive: 19%. Take `CCCOc1ccc(C2c3c(oc4ccccc4c3=O)C(=O)N2c2ccc(C)cn2)cc1OCC` (configuration not stated): the survival was inactive: 71%. The value for `CCOc1cccc2sc(NC(=O)c3ccc(S(=O)(=O)N4CCCc5ccccc54)cc3)nc12` was inactive: 88%; that for `Cc1ccccc1S(=O)Cc1ccc(C(=O)NC2CCCCCC2)o1` (configuration not stated) was inactive: 73%; that for `Cc1ccc(CCNC(=O)c2ccc3c(=O)n(-c4ccc(C)cc4)c(=O)[nH]c3c2)cc1` was inactive: 79%. The figure for `O=C(CNS(=O)(=O)c1cccs1)N1CCN(c2ccccc2Cl)CC1` is inactive: 60%; for `COc1ccc2oc(=O)c(-c3nc(-c4cc(OC)c(OC)c(OC)c4)no3)cc2c1` it is inactive: 97%; for `Cc1ccc2c(CNCc3cccc(Cl)c3)c(C(=O)O)n(Cc3ccc(F)cc3Cl)c2c1` it is inactive: 67%.

Take `Cc1cc2oc(C(=O)Nc3sc4c(c3C(=O)NCc3ccco3)CCC4)cc(=O)c2cc1C`: the survival was inactive: 79%. The figure for `Cc1ccc(C(=O)Nc2ccc3nc(SCC(=O)N4CCc5ccccc54)sc3c2)cc1` is inactive: 90%; for `O=C(NC1CCCCCC1)c1ccc(Cl)c(S(=O)(=O)N2CCOCC2)c1` it is inactive: 95%. As for `O=C(Cn1cc(SCc2cccc(F)c2)c2ccccc21)N1CCCC1`, the survival is inactive: 79%.

Turning to `COc1ccc(N2CCN(C(=O)c3cnc(N4CCCC4)nc3C)CC2)cc1`, the survival is inactive: 70%.

For `CSc1ccc(CNC(=O)CCn2ccc3cc(S(=O)(=O)N4CCC(C)CC4)ccc32)cc1`, the survival was inactive: 78%. The value for `Cc1c(Cl)cccc1NC(=O)N1CCC(CN2CCCC2)CC1` was inactive: 84%. Turning to `CC(Oc1ccccc1)c1nnc(N)s1` (configuration not stated), the survival is inactive: 106%. The value for `COc1cccc(-n2nnc3c(sc4nc(C)cc(C)c43)c2=O)c1` was inactive: 113%; that for `O=C(NN1CC(=O)N(C2CCCC2)C1=O)C(c1ccccc1)c1ccccc1` was inactive: 111%; that for `CC1=C(c2ccc(C)cc2)S(=O)(=O)N(Cc2ccc(C(=O)NCc3cccc(C)c3)cc2)C1=O` was inactive: 93%.

For the molecule `CCC(Sc1nc2ccccc2c2nc(CCc3c(C)n[nH]c3C)nn12)C(=O)Nc1ccc(F)cc1` (configuration not stated), the survival is inactive: 71%. The figure for `COc1ccccc1CNS(=O)(=O)c1ccc2[nH]c3c(c2c1)CCCCC3` is inactive: 117%; for `O=C(NCc1ccccc1Br)C1CCCN(C(=O)N2CCOc3ccccc32)C1` (configuration not stated) it is inactive: 85%. As to `COCCCNC(=O)Cn1c(=O)n(Cc2ccc(C(=O)NCc3ccc(C)cc3)cc2)c(=O)c2ccccc21`, the survival is inactive: 72%. The figure for `Cc1ccc(NC(=O)CSc2nc(C)c(Cc3ccccc3)c(=O)[nH]2)cc1` is inactive: 57%; for `COC(=O)c1ccc(NC(=O)CSc2nc3ccc(OC)cc3[nH]2)cc1` it is inactive: 154%. The value for `O=C(Nc1sc2c(c1C(=O)Nc1ccccc1Cl)CCCC2)c1ccccc1F` was inactive: 56%; that for `COc1ccc(CCNC(=O)CN(c2ccccc2OC)S(=O)(=O)c2ccc(C)cc2)cc1` was inactive: 95%; that for `COC(=O)c1c(NC(=O)c2cc(=O)c3ccc(C)c(C)c3o2)sc2c1CCCC2` was inactive: 85%. The figure for `COc1ccc(CCNC(=O)Cc2c(C)c3c(cc(C)c4c(C)coc43)oc2=O)cc1` is inactive: 98%; for `COc1ccc(-c2cc3nc(-c4ccccc4)cc(C(F)(F)F)n3n2)cc1` it is inactive: 84%. As for `CCNC1CC(=O)N(c2ccc(C(=O)OCC)cc2)C1=O` (configuration not stated), the survival was inactive: 111%. Regarding `Cc1ccc(NC(=O)CN2C(=O)CSc3ccc(S(=O)(=O)N4CCCC4)cc32)cc1F`, the survival is inactive: 99%. The figure for `COC(=O)c1cc(NC(=O)c2oc(=O)c3ccccc3c2-c2ccccc2)cc(C(=O)OC)c1` is inactive: 71%; for `Cc1ccc(NC(=O)c2c(NC(=O)c3ccco3)sc3c2CCC(C(C)(C)C)C3)c(C)c1` (configuration not stated) it is inactive: 118%; for `CCc1ccc(NC(=O)c2cc(S(=O)(=O)NC3CCCC3)ccc2F)cc1` it is inactive: 129%. The value for `COc1cc(OC)c(NC(=O)c2nnn(Cc3ccc(C)cc3)c2N)cc1Cl` was inactive: 90%. As to `COc1ccc(Br)cc1CNC(=O)Cn1c(=O)c2cccn2c2ccc(F)cc21`, the survival was inactive: 85%. Consider `O=C(Cn1ncc2c3ccccc3n(Cc3ccc(Cl)cc3)c2c1=O)N1CCCCCC1`, for which the survival is inactive: 82%.

`O=C(Cc1ccc(F)cc1)NC1CC(=O)N(c2ccc3c(c2)OCCO3)C1` (configuration not stated): the survival is inactive: 73%. The figure for `COc1cccc(-c2cn3c(n2)sc2cc(C(=O)NC4CCCCCC4)ccc23)c1` is inactive: 78%; for `CC1Cc2ccccc2N1C(=O)C1CCN(S(=O)(=O)c2ccc(-n3cnnn3)cc2)CC1` (configuration not stated) it is inactive: 101%; for `CCC(C)c1ccc(OCC(=O)Nc2cccc(-c3nc4ncccc4o3)c2)cc1` (configuration not stated) it is active: 6%. Consider `CCOc1ccc(NC(=O)c2oc3ccccc3c2NC(=O)Cc2ccc(F)cc2)cc1`, for which the survival is inactive: 89%. The figure for `Cc1ccccc1Cn1cc(CCC(=O)NC(C)c2ccccc2)c2ccccc21` (configuration not stated) is inactive: 84%; for `Cc1cc(C)c2oc(-c3cccc(NC(=O)c4ccc(Br)o4)c3)nc2c1` it is inactive: 45%.
